# Assay results from PubChem BioAssay AID1347071 (National Center for Advancing Translational Sciences (NCATS), 2019).
# Hit rate of the full screen: of about 410,000 compounds, about 260 (0.063%) were called active. The shares of active, inactive and inconclusive entries below differ from those in the screen. Calls follow the shape of the dose curve; as a rule, active = well fitted activation curve with a large enough effect; inconclusive = small, poorly fitted or top-dose-only effect; inactive = no such curve, though single readings can be large or run the other way. Potencies of inconclusive entries are left out as doubtful fits.
# Test: qHTS for compounds that reverse cellular toxicity of Amyloid beta (A-beta) peptide in yeast: Primary Screen; also: nearly all actives have a fitted effect of over 55% in size
# Details: yeast expressing A-beta42, growth rescue, OD600, 48 h; growth rescue: at 46.1 µM (top of the series), 0% DMSO, 100% iron-clioquinol control
# Outline: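 Yeast growth medium received pinned compounds, then yeast cells expressing toxic A-beta were added; plates incubated at 30 C for 48 hr. Growth read as absorbance at 600 nm, normalized to DMSO and equimolar FeCl3 plus clioquinol controls.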
# Potency is read from the fitted curve at half-maximal effect; tags tell the direction and shape of the fitted curve.
Structure (SMILES),growth rescue,Potency
CC(=O)c1ccc(N(CC(=O)NC2CCCC2)C(=O)CNC(=O)c2cccs2)cc1,inactive: 3%,–
O=C(c1ccc(CSc2nc3ccncc3n2Cc2cccc(F)c2)cc1)N1CCCCC1,inactive: -6.24%,–
COC(=O)C1=C(C)N(C)C(=S)NC1c1cc(OC)ccc1OC (stereo not drawn),–,"inconclusive [activator, single point]"
Cc1cccc(NC(=O)COc2coc(CN3CCc4ccccc4C3)cc2=O)c1,–,"inconclusive [activator, full curve]"
CC(C)Oc1ccc(C(CCN)C2CCCCC2)cc1 (stereo not drawn),–,"inconclusive [activator, partial curve, poor fit]"
O=C(c1cccc(S(=O)(=O)Nc2ccccc2Cl)c1)N1CCN(c2ccccc2O)CC1,–,"inconclusive [activator, single point]"
COc1cc(NC(=O)c2ccccc2)c(OC)cc1NC(=O)Cc1ccc(Br)cc1,–,"inconclusive [activator, single point]"
CCC(=O)Nc1cccc(-c2cn3ccsc3n2)c1,inactive: 5.68%,–
NS(=O)(=O)c1cccc(Nc2nc3ccccc3nc2NS(=O)(=O)c2ccc(Cl)cc2)c1,–,"inconclusive [activator, full curve]"
COc1ccc(Nc2nc3ccccc3s2)cc1,–,"inconclusive [activator, partial curve, poor fit]"
O=C(Nc1cnn(Cc2ccc(Cl)cc2)c1)c1ccc([N+](=O)[O-])cc1,–,"inconclusive [activator, partial curve, poor fit]"
Cc1ccc(CNC(=O)c2ccc(CSCc3cccc(C)c3)o2)cc1,inactive: 1.92%,–
Cc1cccc(NC(=O)c2ccc(S(=O)(=O)N(C)C)cc2)n1,–,"inconclusive [activator, full curve, poor fit]"
CC(CCc1ccccc1)NC(=O)CSc1ccccn1 (stereo not drawn),–,"inconclusive [activator, partial curve, poor fit]"
Cc1ccc(C2=NS(=O)(=O)N(C)C(C(=O)Nc3ccc(F)cc3F)=C2)cc1,inactive: 0.113%,–
O=C(C1CCCN(S(=O)(=O)c2ccc(Br)s2)C1)N1CCN(c2ccccc2F)CC1 (stereo not drawn),inactive: -4.33%,–
CCn1c(COc2ccc(C)cc2)nnc1SCC(=O)Nc1ccc(S(N)(=O)=O)cc1,–,"inconclusive [activator, full curve, poor fit]"
Cc1ccc(CN2CC(=O)N3[C@H]4c5cc(C)ccc5OC[C@@H]4[C@H](c4ccccc4)[C@]3(C)C2=O)cc1,–,"inconclusive [activator, partial curve, poor fit]"
CCOc1cc(/C=N/NC(N)=S)cc(Br)c1OCc1ccccc1C,–,"inconclusive [activator, full curve]"
CCOC(=O)N1CCN(C(=O)c2cnn3c(C(F)F)cc(-c4ccc(C)cc4)nc23)CC1,–,"inconclusive [activator, full curve, poor fit]"
Cc1ccccc1CN1CCC(CNc2ncnc3onc(-c4ccc(F)cc4)c23)CC1,inactive: -11.9%,–
COC(=O)Cc1ccc(NC(=S)NCCSc2ccc(Cl)cc2)cc1,–,"inconclusive [activator, single point]"

Structure (SMILES),growth rescue,Potency
O=C(NCC1CCCO1)C1CCN(S(=O)(=O)c2ccc(Br)cc2)CC1 (stereo not drawn),–,"inconclusive [activator, single point]"
O=C(N/N=C/c1cccc([N+](=O)[O-])c1)c1cc(-c2ccc3c(c2)OCO3)n[nH]1,–,"inconclusive [activator, single point]"
CCOC(=O)C1(Cc2ccc(Cl)cc2)CCN(C(=O)c2cscn2)CC1,–,"inconclusive [activator, partial curve, poor fit]"
COCc1cc(N2CCOCC2)nc(SCc2ccc(Cl)cc2)n1,–,active: 10 µM
CCOc1ccccc1Nc1cc(C)nc2nc(C)nn12,–,"inconclusive [activator, full curve, poor fit]"
NC(=O)c1c(NC(=O)CN2C(=O)NC(Cc3ccccc3)C2=O)sc2c1CCC2 (stereo not drawn),–,"inconclusive [activator, single point]"
Cc1ccc(OCc2n[nH]c(=S)n2-c2ccc(C)cc2)cc1,–,"inconclusive [activator, single point]"
CC(C)(C)C(=O)NC(=S)Nc1cc(C(F)(F)F)ccc1N1CCOCC1,inactive: 15.9%,–
Cc1nc(-n2[nH]c3c(c2=O)CCCC3)[nH]c(=O)c1Cc1ccccc1,–,"inconclusive [activator, partial curve, poor fit]"
COCC1CCN(Cc2cn(Cc3ccccc3)nc2-c2cc3ccccc3o2)CC1,–,"inconclusive [activator, single point]"
CC(=O)c1ccc(NC(=O)COC(=O)CCC2CCCC2)cc1,–,"inconclusive [activator, full curve]"
O=C(CSc1ccc(-c2nc3ccccc3[nH]2)cn1)Nc1ccc2c(c1)OCCO2,inactive: 3.76%,–
O=C(/C=C/c1ccc2c(c1)OCO2)c1ccco1,inactive: -51.1%,–
CN(c1ccc(OCc2nnc(-c3ccccc3)o2)cc1)S(=O)(=O)c1ccccc1,–,"inconclusive [activator, partial curve, poor fit]"
CCc1ccc(Oc2coc3cc(O)ccc3c2=O)cc1,–,"inconclusive [activator, partial curve, poor fit]"
CCc1nc2c(OCCC3CCCCC3)cccn2c1N(C)C(=O)c1ccc(OC)cc1,inactive: -2.21%,–
Cc1cc(C)c(C)c(OCc2nc(-c3cccnc3)no2)c1,inactive: -5.83%,–
CC(/C=N/NC(=O)c1cc(C(C)C)[nH]n1)=C\c1ccccc1,inactive: -5.82%,–
CN=C(Nc1ccccc1)SC1CC(=O)N(c2cccc(OC)c2)C1=O (stereo not drawn),–,"inconclusive [activator, single point]"
Cn1c(C(=O)N2CCN(c3ccc(F)cc3)CC2)cc2ccccc21,–,"inconclusive [activator, single point]"
CC(C)(C)c1cc(NS(=O)(=O)c2ccc3c(c2)OCCO3)on1,–,"inconclusive [activator, single point]"
